From the supplement of paper PMC11417369
± gives the standard deviation of the averaged measurements. The list shows a part of the results.

Each sequence was assayed on PfAP2-G AP2 domain (GST-tagged) (assay: gcPBM binding intensity (ln(normalized median fluorescence intensity)); higher = stronger DNA binding).
Procedure, shortened: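 Binding intensity is defined as the maximum Masliner-normalised natural-log median intensity across replicate spots for either probe orientation. It was measured on an Agilent 4 × 180k array of primer-extended double-stranded 36-bp intergenic genomic probes and negative controls, to which GST-tagged P. falciparum DNA-binding domains made in E. coli were applied for 1 h in 1× PBS with 1% milk, 0.2 mg/ml BSA, 0.5% salmon testes DNA and 0.03% Triton X-100. Detection was by Alexa488 anti-GST antibody and scanning at 488 nm.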

Sequence	gcPBM binding intensity (ln)
TTCTTTTAAAAATATATTTTAAGAAAATTTAATTTA [GTGCAC_negctrl_site237]	9.545 ± 0.064
GGATAAGAAAAGAAGTGTACATATATATATATATAT [XGTACX_site8290]	11.2 ± 0.68
TATCATGGTTCGGATTGTACATATATGAATTTTTTT [XGTACX_site7478]	10.8 ± 0.45
CAAAAAAAAAAACGGGTGCTAAATTTTATTTTTTAT	10.05 ± 0.028
AAAAAAAAAATATATATATATATATATATATATATA [GTGCAC_negctrl_site467]	9.71 ± 0.71
ATAAAGCACACCGACACACACATATATATATATATA [CACACA_site1047]	10.3 ± 0.28
AAAAAAAAAAAAATTACACACATACCTATAAGAATA [CACACA_site7097]	9.885 ± 0.078
TTTTCTTTTTTCTTTTTAACTCTTACATAATAGGTG [CACACA_negctrl_site642]	10.3 ± 0.2
AATATATGTTAAAATGGTACACAATTATTATATATT [XGTACX_site6407]	11 ± 0.67
AAAAAAAAAAAAAAGAGTACTTTTTTCACATTCATC [XGTACX_site8795]	11.2 ± 0.6
TAAAATGAATAAAATTGTACTTAATAATATTTTAAA [XGTACX_site5532]	10.9 ± 0.74
AAGGAAAACAGTAGGTGTACCAAACGTCCTAGGAAC [XGTACX_site3659]	11.2 ± 0.69
TATATTTATATCATCACACATTTTTTTTTTCTTTTT [CACACA_site6150]	9.44 ± 0.33
CTTATAATATTACGGGTGCTATAAATACATTATATT	10.2 ± 0.19
TAAATCAAAAACAACAAGTCATATTAAAGATGGTAT [CACACA_negctrl_site1321]	9.98 ± 0.028
TTGTTTCAAAATTAAACACACACAAAAAAAAAAAAA [CACACA_site8856]	9.91 ± 0.42
TATTCCTAATTTAAAAGTACATATATATATATATAT [XGTACX_site3008]	11.3 ± 0.79
GGATATATAAGATACACACACAAATTAAATATAAAA [CACACA_site7333]	10.1 ± 0.13
TAATATATAAATATATGTACATAATTAATAGGATAT [XGTACX_site237]	11.2 ± 0.73
TAATTAAAATTATATATTAGAAAAAACATATAAAAC [CACACA_negctrl_site190]	10 ± 0.31
ATATGTAGAATAAAAAAAAAAAAAAAAAAAAAAAAT [CACACA_negctrl_site621]	9.66 ± 0.23
TAAAAATATATGTATACACACATATATATATATATA [CACACA_site3951]	10 ± 0.38
AAAAAAAGTGACTCCTTACACACTTTACATAATTTA [CACACA_site820]	10.09 ± 0.057

Sequence	gcPBM binding intensity (ln)
AATATTGAAATAACGCGTACAAAAAAAAGTTATATT [XGTACX_site6559]	11.5 ± 0.71
GTTAAGTGTATATATACACACATATGTAATACATGA [CACACA_site3048]	10.2 ± 0.11
TTAATTTATAAAAACACACACAGGTAAAAAGGTGCA [CACACA_site1177]	10.29 ± 0.071
ATGTTATATTATAAAAGTACATTTTATTTTTATTTA [XGTACX_site4365]	11.1 ± 0.65
TATATTTATTATAACACACACATATTTATATTATAG [CACACA_site6628]	9.94 ± 0.099
TTTCTTTTTAAATATATACACACCGGGTGTACATAT [CACACA_site3345]	11.5 ± 0.98
AGGTAATATACTAAATGTACAGAAAAACGAATTTTT [XGTACX_site2977]	10.8 ± 0.4
AATATAACTTTTTGCACACTTAATTTTTTTTTTTAA [CACACA_site3365]	10.13 ± 0.064
TAACAAAAAGCACTTAGTACATATATATATATATAT [XGTACX_site1099]	10.8 ± 0.52
TAATATCAAACCTATAGTACATAAGGTATAAAAAAG [XGTACX_site3533]	10.8 ± 0.56
GTATTATTTTATGATGCATGTGTATTTCATATATGC [TGCATGCA_site660]	9.975 ± 0.021
AATGAAATAATACAATGTACGTTAAAAAAAAATAAA [XGTACX_site7928]	11.2 ± 0.73
AGAACATTTTCTCAGTGTACTTATATATTTGACATA [XGTACX_site6541]	11.4 ± 0.94
ACTAAACAATATGTATGTACATATTTTACATATAAT [XGTACX_site3318]	11.3 ± 0.76
TATACAATATTTATAACACACATATTTATATAAACT [CACACA_site6932]	9.885 ± 0.078
ACTTCCTATATTTATGCATGCATTTTATTAAAAAAT [TGCATGCA_site747]	10.1 ± 0.16
ATATATCATGAACCTTGTACGTATATATATATATAT [XGTACX_site239]	11.4 ± 0.97
GATGGAATCTAATTTACATGCAGTGATATAATAAAT [TGCATGCA_site1031]	9.77 ± 0.18
TAATAATAACCGTTATGTACACAATTTTGTGAACAT [XGTACX_site8053]	11.6 ± 0.95
ATTTATTTATTTATATGTACATATATATATATATAT [XGTACX_site339]	11.4 ± 0.99
TACAGACAGAAACACACACACACGCATAAAAAAAAA [CACACA_site1514]	10.3 ± 0.38
TTTTTTTTTTTTTTAACACACATATAAATATTTTTC [CACACA_site6985]	9.75 ± 0.33
TTTTTCTATTCCATTCAACACACAAAAATGTATGCT [CACACA_site8268]	9.995 ± 0.078

Sequence	gcPBM binding intensity (ln)
AAAGTTTTAAGAAAATGTACATAAGTATACATATAT [XGTACX_site1293]	11 ± 0.51
ATTCTTGTTATATAAGGTACAGAACAAAATATAAAA [XGTACX_site5510]	11 ± 0.71
TTTGGGATAAAACAAAGTACTAACAAAATATATAAT [XGTACX_site8240]	11 ± 0.49
TGCATTTTACTTGTTACACACATATAAAATTAACCA [CACACA_site7387]	10.05 ± 0.085
AAATGGAGTTAATATTGTACATATATATATATATAT [XGTACX_site5452]	11 ± 0.68
ATTTATAAATCAAAGTGTACATATGTTTTATTTTTT [XGTACX_site804]	11.4 ± 0.6
AGAGAGAACGGTATAACATGCAATAAATTTCAGAAG [TGCATGCA_site423]	9.62 ± 0.19
TTTTTTTAATAAAAGTGTACCAAATTATATACACAT [XGTACX_site6811]	11.1 ± 0.64
TTTTATAAATATTTTTGTACACATTTAAATATTATT [XGTACX_site4973]	11.3 ± 0.59
TTTTCATATATTTATTGTACATATTACATATATAAT [XGTACX_site2425]	11.1 ± 0.61
TTCTTTTTAAATATACTAATTATGTATAAAACAGAA [GTGCAC_negctrl_site131]	9.94 ± 0.23
ATGTATGTAATAAAAAGTACATATGTTCATAATAAA [XGTACX_site842]	11.4 ± 0.57
TTTTATTATATGGAGGTGCATATATAATAATATAAT [GTGCAC_site9477]	9.9 ± 0.16
ATCGGTAATATTAACACACACATTTATTTATATTTA [CACACA_site6638]	10.03 ± 0.092
TGGAACGTAATAAAATGTACATACGTTTTTCATATG [XGTACX_site6229]	11.1 ± 0.63
TTTTTTTTTCCTTCTTGTACATATTATATATACATA [XGTACX_site5988]	11 ± 0.55
TTCACATATATATAACGTACATTATTATTATTCTGA [XGTACX_site6006]	11.1 ± 0.71
AACACATACATATATGCACACATTTTATTCCATTAT [CACACA_site2834]	10.125 ± 0.007
TTTTTTTTTTTTTGTACATGCAAATATTATGAACAC [TGCATGCA_site571]	11.1 ± 0.86
GACAAATTAATCGATTGTACACAATTTGTTTCGTTG [XGTACX_site35]	11.3 ± 0.9
TCTTATTTAATTAAACAAAAGAAAAAGAAAGAAAAG [CACACA_negctrl_site1569]	10 ± 0.19
TACAAGTATAAATAAGCACACATGTGTATATGTACA [CACACA_site7911]	10.6 ± 0.23
TTAGAAGGGATTAAAGTGCAAAATAGGATTAGAGTA	9.98 ± 0.014

Sequence	gcPBM binding intensity (ln)
GATCTTTTTTTTCTTACTTTACAATTTTTTTTTTAC [XGTACX_negctrl_site101]	9.995 ± 0.035
TTTTTTTTTTTCATGTGTACATATATTTTCACTTTA [XGTACX_site4475]	11.4 ± 0.82
AAGAAAAAGAATAGACGGACAACTAATATAAAATAT [XGTACX_site7905]	11.2 ± 0.63
TTTATTTCTATATTTACATGCAAAGGGTTAGTTATA [TGCATGCA_site983]	9.97 ± 0.099
TATCATCATGTATGTACACACATACCTATATTATGT [CACACA_site6768]	11.3 ± 0.79
GTTTTACACAGACATGCATGTGAAAATTTGATGGTA [TGCATGCA_site308]	9.92 ± 0.099
TGTATAAAACATGGGTGTACTGAACTCAATCATATA [XGTACX_site1215]	11.3 ± 0.64
GATTTTCTAATTTCTACACACATATAAGAATATTCA [CACACA_site7340]	10 ± 0.099
TTTTTAATTCAAACAATAATATGTTATATTTCAAAT [TGCATGCA_negctrl_site27]	9.715 ± 0.035
AAAAGTAACAAAGCTACACACATTTAAATAAACATA [CACACA_site1421]	9.945 ± 0.092
AAAATAACAAAATAAAGTACTTTTAAAAGATATAAT [XGTACX_site7632]	11 ± 0.59
AAAATAAAAAAGTGTACACATATTAAAATGTATTTA [CACACA_site4424]	11.6 ± 0.88
GAAAAGAAAAATAAACGTACATAAATATTAACATTA [XGTACX_site8213]	11.4 ± 0.98
CAAATAAAAATAAGGAGTACAATTAAAAAAGGAAGG [XGTACX_site4366]	11.6 ± 0.91
TATTAGCATGTTATTACACACAATATAAAATATATA [CACACA_site1401]	9.76 ± 0.071
TAAAATTATATAAAGGAACACACATTTTATTTTATT [CACACA_site8423]	9.925 ± 0.007
TCATTGTTAAGCTGAAGTACTTATAATTACATCGAG [XGTACX_site6340]	11.2 ± 0.76
AATATATTTTAATATACACACATATCTGCTCTTTAA [CACACA_site6130]	9.765 ± 0.021
CATGTATGTACCATGGTGCAACAATATTTTTAACAA [GTGCAC_site9597]	11 ± 0.64
AATTAAATTACTTATACACACATAAAATGTCTGTAT [CACACA_site997]	10.01 ± 0.092
